The structures appear in SMILES notation. Screen size: about 150,000 compounds; about 540 (0.36%) showed an effect of 50% or more. The list shows a part of the results.

For orientation: % Inhibition means the change of the read-out against control, counted positive when it falls.

The test system of this assay is Plasmodium falciparum. The experiment in a line: Primary screen in NF54 nanoGlo assay, in single point, at 2uM, 72h; a lower Z score goes with more inhibition. Format: functional, Erythrocyte. To be noted: timepoint 72 hour.
For `Cc1cc(C)c2c(NC(=O)C3CCCCC3)nn(C)c2n1`, the “% Inhibition” value was found to be 8% and the Z score is listed as -1.29.
As for `CC(C)(C)OC(=O)N[C@@H](Cn1ccnn1)c1ccccc1`, the “% Inhibition” value is -8% and the Z score came out at 0.88.
Taken in the same sequence, the figures for `COc1ccccc1C(=O)NCc1ccc2c(c1)CCN2C(=O)c1ccccc1` were -12% and 2.24.
The matching figures for `O=C(N/C(=N/c1ccc(F)cc1)NCc1cccnc1)c1ccccc1`: -23% and 2.08.
For `CC(C)Oc1ccc(C2(c3nc([C@H]4CCOC4)no3)CCCC2)cc1`, the “% Inhibition” value was 12% and the Z score was -1.5.
Taken in the same sequence, the figures for `Cc1cc(CN2CCN(C(=O)c3ccccc3S(C)(=O)=O)CC2)on1` were -6% and 0.96.
On to `CC(C)NC[C@H](O)COc1ccc(CCOCC2CC2)cc1` [LEVOBETAXOLOL], for which the “% Inhibition” value is -16% and the Z score was 2.01.
Consider `Cc1cc(C#N)nc(NC2CC(C)N(C3CC3)C2)n1` (stereo unspecified), for which the “% Inhibition” value is given as -19% and the Z score was 1.75.
The matching figures for `C[C@@]1(C(=O)NC2CCCCCCC2)Cn2c(ccc2-c2ccco2)C(=O)N1CCN1CCCCCC1`: -13% and 1.28.
Taken in the same sequence, the figures for `c1ccc(-c2nc(-c3cccc4ncccc34)n[nH]2)cc1` were -4% and 0.86.
The matching figures for `CCNC(=O)[C@@H]1C[C@@H](n2cc(CN(C)C(=O)c3cccc(C)c3C)nn2)CN1`: 2% and -0.34.
As to `Cc1cc(F)ccc1C(=O)N[C@H]1COCC[C@@H]1O`, the “% Inhibition” value is given as -6% and the Z score is on record as 0.93.
Take `CN(Cc1nnc[nH]1)[C@H]1CCN(C(C)(C)C)C1=O`: the “% Inhibition” value is recorded as -4% and the Z score worked out at 0.59.
Taken in the same sequence, the figures for `Cc1cccc(N2C(=O)N(CC(=O)OC(C)C)S(=O)(=O)c3cccnc32)c1` were -13% and 1.29.
Taken in the same sequence, the figures for `Cc1nc(N)sc1CC(=O)N[C@@H](C)C(C)(C)O` were -1% and 0.16.
The matching figures for `CCn1ncc(CNC(=O)N2CCO[C@@H](CCOC)C2)c1C`: -11% and 1.16.
In the case of `Cc1nc(C(C)C)ccc1C(=O)N[C@H](C)c1ncc[nH]1`, the “% Inhibition” value was found to be 1% and the Z score is given as -0.13.
With `COc1cc2c(cc1OC)C1(CCCC1)CN(C(=O)CN1CCOCC1)C2`, the “% Inhibition” value is given as -6% and the Z score worked out at 1.06.
The matching figures for `CC(C)COC(=O)N1CCN(c2ccc(C(F)(F)F)nn2)CC1`: -1% and 0.12.
For the compound `COCc1noc(CNS(=O)(=O)c2cccnc2)n1`, the “% Inhibition” value is -13% and the Z score was 2.41.
Taken in the same sequence, the figures for `CC(=O)N1CCC([C@@H]2CN(C(=O)Nc3cc(C)ccc3C)C[C@H]2COc2ccccc2)CC1` were 8% and -0.92.
The matching figures for `Cc1oc(-c2ccccc2Cl)nc1CN1CCc2nnc(C(C)C)n2CC1`: -1% and 0.08.
Take `CNc1cc(C(=O)NCCCn2ccnc2)ccn1`: the “% Inhibition” value is -13% and the Z score worked out at 1.16.
The matching figures for `O=C(C1CCCO1)N1CCCC1c1cccs1` (stereo unspecified): -9% and 0.96.
The matching figures for `CC(C)(CN1CCC(c2ncon2)CC1)N1CCOCC1`: -8% and 1.53.
Taken in the same sequence, the figures for `CC(C)(Oc1ccc2c(c1)CCC2)C(=O)NCc1ccon1` were -17% and 2.55.
In the case of `Cc1ncn(CCNC(=O)N2CCC[C@H](c3nc4c(C)cccc4[nH]3)C2)c1C`, the “% Inhibition” value stood at 0% and the Z score was -0.04.
The matching figures for `Cc1cc2c(cc1CN1CC[C@]3(O)CCN(C(=O)N(C)C)C[C@@H]3C1)OCO2`: -5% and 0.94.
Taken in the same sequence, the figures for `Cn1c(=O)n(C)c2cc([C@H]3CC(=O)Nc4cccc5c4c3cn5Cc3ccccc3)ccc21` were 3% and -0.65.
On to `O=C1CC[C@H](C(=O)NCC2CC3CCC2C3)N1` (stereo partly specified), for which the “% Inhibition” value is listed as -15% and the Z score came to 1.3.
Turning to `N[C@H]1CCCN(Cc2cnc(C3CCCCC3)nc2)CC1`, the “% Inhibition” value is -2% and the Z score amounted to 0.33.
Taken in the same sequence, the figures for `CCCCOCCCNC(=O)c1ccccc1Cl` were -7% and 0.99.
The matching figures for `O=C(c1coc(-c2cccnc2)n1)N(CC(F)(F)F)C1CCC1`: 1% and -0.1.
As for `Cc1cc(CS(=O)(=O)c2ccc(F)cc2)no1`, the “% Inhibition” value is reported as -1% and the Z score is reported as 0.09.
As to `Cc1c(NC(=O)c2cccc3ccccc23)cccc1-c1nc2ncccc2o1`, the “% Inhibition” value is on record as -9% and the Z score amounted to 1.1.
For the compound `CN(C)C1CCN(C(=O)c2nc(CCc3ccccc3)n(-c3ccccc3)n2)CC1`, the “% Inhibition” value is -22% and the Z score turned out to be 2.16.
Turning to `CCCc1noc(CN(C)S(=O)(=O)N2CCC(COC)CC2)n1`, the “% Inhibition” value is given as -4% and the Z score came out at 0.82.
Regarding `CCn1nc(NC(=O)c2cc(C3CC3)nc3onc(-c4cccc(OC)c4)c23)cc1C`, the “% Inhibition” value was found to be 29% and the Z score is on record as -3.3.
For `COc1ccc2nc(-c3ccc(NS(=O)(=O)c4c(C)cc(C)cc4C)c(C)c3)sc2c1`, the “% Inhibition” value is given as -14% and the Z score was found to be 1.91.
For the compound `CCC(CC)(CC)C(=O)NC[C@@]12CNC[C@]1(C(F)(F)F)C2`, the “% Inhibition” value was -9% and the Z score was 1.82.
The matching figures for `CC[C@H](O)Cn1nc(-c2c[nH]c3ccccc23)nc1CN1CCCCC1=O`: -2% and 0.27.
The matching figures for `Nc1c(-c2ccccn2)nsc1C(=O)N1CCCC1`: -12% and 2.11.
In the case of `CCc1csc(CC2CCN(Cc3ncccn3)CC2)n1`, the “% Inhibition” value was -5% and the Z score is 1.07.

These data come from ChEMBL document CHEMBL4888484, “Replenishing the malaria drug discovery pipeline: Screening and hit evaluation of the MMV Hit Generation Library 1 (HGL1) against asexual blood stage Plasmodium falciparum ,using a nano luciferase reporter read-out” (2022).
